# The other results are listed elsewhere or left out.
# B1: PhoQ; a variant is named by its letters at X, in order, P23837 (parent)
# chain: MKKLLRLFFPLSLRVRFLLATAAVVLVLSLAYGMVALIGYSVSFDKTTFRLLRGESNLFYTLAKWENNKLHVELPENIDKQSPTMTLIYDENGQLLWAQRDVPWLMKMIQPDWLKSNGFHEIEADVNDTSLLLSGDHSIQQQLQEVREDDDDAEMTHSVAVNVYPATSRMPKLTIVVVDTIPVELKSSYMVWSWFIYVLSANLLLVIPLLWVAAWWSLRPIEALAKEVRELEEHNRELLNPATTRELTSLVRNLNRLLKSERERYDKYRTTLTDLTHSLKTPLXXLQXXLRSLRSEKMSVSDAEPVMLEQISRISQQIGYYLHRASMRGGTLLSRELHPVAPLLDNLTSALNKVYQRKGVNISLDISPEISFVGEQNDFVEVMGNVLDNACKYCLEFVEISARQTDEHLYIVVEDDGPGIPLSKREVIFDRGQRVDTLRPGQGVGLAVAREITEQYEGKIVAGESMLGGARMEVIFGRQHSAPKDE
# Variants of: B1
# Assay: enrichment ratio after two sorts for PhoP signalling (ratio (wild type AVST 3.29)); higher = more functional
# Conditions: with PhoP (E. coli)
row,Variant,enrichment ratio
1,VSNS,≤ 0.25
2,PNLV,≤ 0.25
3,QPNL,≤ 0.25
4,TNQM,14.3
5,YPWC,≤ 0.25
6,PVGP,≤ 0.25
7,GKWT,≤ 0.25
8,EIAY,≤ 0.25
9,YNHG,≤ 0.25
10,LKCM,≤ 0.25
11,KMKP,≤ 0.25
12,QCCQ,≤ 0.25
13,YPGI,≤ 0.25
14,CPSD,≤ 0.25
15,FSFK,0.842
16,IYIL,≤ 0.25
17,DVYY,≤ 0.25
18,PHIN,≤ 0.25
19,GFQV,≤ 0.25
20,FRDR,≤ 0.25
21,NYND,≤ 0.25
22,SQCN,10.1
23,WHPA,≤ 0.25
24,QYVG,≤ 0.25
25,SILP,≤ 0.25

row,Variant,enrichment ratio
1,AWIL,≤ 0.25
2,HCMG,≤ 0.25
3,PENC,≤ 0.25
4,FPGA,≤ 0.25
5,LHCQ,≤ 0.25
6,SYCW,≤ 0.25
7,DGDK,≤ 0.25
8,ACEY,≤ 0.25
9,MYCR,≤ 0.25
10,PPPM,≤ 0.25
11,RKNV,≤ 0.25
12,PYQH,≤ 0.25
13,SQQV,3.29
14,RCID,≤ 0.25
15,YRLC,≤ 0.25
16,NGTR,≤ 0.25
17,RYLR,≤ 0.25
18,ARSS,0.56
19,SYHH,0.299
20,SYIA,≤ 0.25
21,IPMP,≤ 0.25
22,TWDD,≤ 0.25
23,EKSQ,≤ 0.25
24,RWSS,≤ 0.25
25,WKIK,≤ 0.25

row,Variant,enrichment ratio
1,WFLN,≤ 0.25
2,KFMF,≤ 0.25
3,TVHN,5.01
4,GYSP,≤ 0.25
5,VHPM,≤ 0.25
6,HCYP,≤ 0.25
7,WIPL,≤ 0.25
8,VSEG,≤ 0.25
9,LKKH,≤ 0.25
10,MTWS,≤ 0.25
11,SPVF,≤ 0.25
12,WGLG,≤ 0.25
13,AMRR,≤ 0.25
14,HCWF,≤ 0.25
15,IKFY,≤ 0.25
16,KGCS,≤ 0.25
17,GKLI,0.717
18,RCHN,≤ 0.25
19,AQVN,0.509
20,MRHF,≤ 0.25
21,YGHQ,≤ 0.25
22,VDLM,≤ 0.25
23,ATML,11.3
24,MEGR,≤ 0.25
25,FANA,≤ 0.25

row,Variant,enrichment ratio
1,IRPE,≤ 0.25
2,WTPC,≤ 0.25
3,TNNV,13.4
4,IKPF,≤ 0.25
5,WTYA,≤ 0.25
6,HNRA,≤ 0.25
7,LTRQ,≤ 0.25
8,TGYR,≤ 0.25
9,QAWY,4.75
10,LWDC,≤ 0.25
11,YYET,≤ 0.25
12,VMSL,≤ 0.25
13,ASPD,≤ 0.25
14,WKHM,≤ 0.25
15,DVPF,≤ 0.25
16,NVIM,≤ 0.25
17,GSLS,11.8
18,DVKK,≤ 0.25
19,DQYK,≤ 0.25
20,SKFE,≤ 0.25
21,MKVA,≤ 0.25
22,LYKY,≤ 0.25
23,HFAS,≤ 0.25
24,SDFE,≤ 0.25
25,AFNP,≤ 0.25

row,Variant,enrichment ratio
1,FRMK,≤ 0.25
2,FSNW,≤ 0.25
3,KLSW,≤ 0.25
4,KMMY,≤ 0.25
5,FGRM,≤ 0.25
6,SWLL,≤ 0.25
7,DGYI,≤ 0.25
8,QYKF,≤ 0.25
9,YDGG,≤ 0.25
10,HPIY,≤ 0.25
11,IFVL,≤ 0.25
12,QYFC,≤ 0.25
13,TAIA,3.27
14,FSIK,≤ 0.25
15,AWWT,≤ 0.25
16,LNDT,≤ 0.25
17,YTDP,≤ 0.25
18,KTVI,≤ 0.25
19,SGKT,≤ 0.25
20,SPWD,≤ 0.25
21,MNHY,≤ 0.25
22,IMMR,≤ 0.25
23,SWIF,≤ 0.25
24,WISV,≤ 0.25
25,KFEY,≤ 0.25

row,Variant,enrichment ratio
1,IFWI,≤ 0.25
2,DNQV,9.55
3,DSME,≤ 0.25
4,NEVK,≤ 0.25
5,QFLK,≤ 0.25
6,FCPE,≤ 0.25
7,DLAN,≤ 0.25
8,VQWF,≤ 0.25
9,WRPW,≤ 0.25
10,HHGD,≤ 0.25
11,YSWN,≤ 0.25
12,GKSM,≤ 0.25
13,PPVD,≤ 0.25
14,WPHG,≤ 0.25
15,MKCH,≤ 0.25
16,TVAW,2.61
17,IETP,≤ 0.25
18,VGEQ,≤ 0.25
19,YNLK,≤ 0.25
20,LLKG,≤ 0.25
21,NFQW,≤ 0.25
22,QREC,≤ 0.25
23,GMTI,10.1
24,YEDS,≤ 0.25
25,DSDI,≤ 0.25

row,Variant,enrichment ratio
1,IHPI,≤ 0.25
2,LSDW,≤ 0.25
3,PTGA,≤ 0.25
4,MGRV,≤ 0.25
5,QQWY,2.25
6,HLYE,≤ 0.25
7,PGHY,≤ 0.25
8,SKLW,≤ 0.25
9,HLWH,≤ 0.25
10,WDDA,≤ 0.25
11,FWTS,≤ 0.25
12,FIMF,0.618
13,GNYE,≤ 0.25
14,SGPC,≤ 0.25
15,KYRI,≤ 0.25
16,WMVC,≤ 0.25
17,HFEG,≤ 0.25
18,GVLV,9.75
19,PFQR,≤ 0.25
20,RIKR,≤ 0.25
21,ILWW,≤ 0.25
22,KSRE,≤ 0.25
23,YGEH,≤ 0.25
24,QYLM,≤ 0.25
25,SDAA,≤ 0.25

row,Variant,enrichment ratio
1,QIAS,≤ 0.25
2,RPQQ,≤ 0.25
3,WHKH,≤ 0.25
4,RCCH,≤ 0.25
5,KTYG,≤ 0.25
6,MYTH,≤ 0.25
7,TYSS,6.48
8,PRFM,≤ 0.25
9,DHYH,≤ 0.25
10,EFRL,≤ 0.25
11,ENDS,≤ 0.25
12,ANGW,11.4
13,VCGS,≤ 0.25
14,TWVH,≤ 0.25
15,WLYR,≤ 0.25
16,HKTH,≤ 0.25
17,VLGM,≤ 0.25
18,KDSA,≤ 0.25
19,INQE,≤ 0.25
20,AVPR,≤ 0.25

# From a collection of fitness landscapes (doi:10.1126/science.1257360)
